This is an account of results in PMC4336329 (PLoS ONE, 2015).

Screen size: about 310,000 compounds; about 14,000 (4.5%) showed an effect of 50% or more. The effect is printed as a negative number. This is one part of the list. *1 amine or outer side, *2 acyl side, *3 side chain or, on linkers, in order; H or OH if unused. Where a SMILES comes first, the peptide text is derived from it. [ ]: non-standard residue; d: D form. ξ: configuration not given here. ξR = N=C(N)NCCCC(N)C(=O)O; ξF = NC(Cc1ccccc1)C(=O)O; CO = O=C([*:1])[*:2]
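Note: peak tail current of the secondary pulse compared with the same well before compound.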

The target of this experiment is human ether-à-go-go-related gene (hERG) potassium channel (human, UniProt Q12809). The experiment is described as follows: primary screen, population patch clamp on CHO cells stably expressing hERG.
Chain of human ether-à-go-go-related gene (hERG) potassium channel (Q12809 whole entry, looked up): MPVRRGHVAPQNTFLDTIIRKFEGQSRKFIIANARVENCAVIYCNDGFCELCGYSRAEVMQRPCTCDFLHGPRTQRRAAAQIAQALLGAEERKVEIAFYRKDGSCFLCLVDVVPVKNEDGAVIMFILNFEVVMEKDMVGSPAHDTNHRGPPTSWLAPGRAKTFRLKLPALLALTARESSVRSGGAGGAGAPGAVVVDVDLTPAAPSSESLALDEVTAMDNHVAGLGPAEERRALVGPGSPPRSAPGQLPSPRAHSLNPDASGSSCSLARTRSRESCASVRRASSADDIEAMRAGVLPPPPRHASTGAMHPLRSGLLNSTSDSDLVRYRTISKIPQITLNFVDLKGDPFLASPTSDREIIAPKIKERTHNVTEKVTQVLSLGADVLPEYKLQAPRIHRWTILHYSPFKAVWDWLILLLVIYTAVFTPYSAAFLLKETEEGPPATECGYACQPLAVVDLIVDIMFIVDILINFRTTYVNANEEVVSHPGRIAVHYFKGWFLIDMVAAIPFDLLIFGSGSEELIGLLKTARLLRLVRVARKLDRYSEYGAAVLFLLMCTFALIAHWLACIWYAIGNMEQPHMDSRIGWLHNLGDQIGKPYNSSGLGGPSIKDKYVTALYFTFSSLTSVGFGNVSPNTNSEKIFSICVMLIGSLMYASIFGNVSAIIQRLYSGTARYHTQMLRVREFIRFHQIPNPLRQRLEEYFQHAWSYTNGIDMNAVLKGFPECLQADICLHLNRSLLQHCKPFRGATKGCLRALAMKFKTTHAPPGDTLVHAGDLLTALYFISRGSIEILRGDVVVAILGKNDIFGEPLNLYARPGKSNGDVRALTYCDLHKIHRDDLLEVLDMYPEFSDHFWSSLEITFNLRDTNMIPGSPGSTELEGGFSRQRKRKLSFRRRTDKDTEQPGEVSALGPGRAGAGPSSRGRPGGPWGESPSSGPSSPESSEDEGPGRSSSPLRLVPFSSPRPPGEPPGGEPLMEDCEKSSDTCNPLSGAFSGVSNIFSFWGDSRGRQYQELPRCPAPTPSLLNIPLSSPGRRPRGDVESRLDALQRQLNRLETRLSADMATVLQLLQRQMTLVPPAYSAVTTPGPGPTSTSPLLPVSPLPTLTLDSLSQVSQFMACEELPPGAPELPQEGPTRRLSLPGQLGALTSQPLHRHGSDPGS
`CC(Sc1nnnn1C1CCCC1)C(=O)Nc1cccc(S(=O)(=O)N2CCOCC2)c1` (stereo not drawn): the “hERG current change (%, negative = inhibition) at 10uM” value is -18.2%.
`COc1ccc(-c2noc(CNC(=O)C(C)Oc3ccccc3)n2)cc1` (stereo not drawn): the “hERG current change (%, negative = inhibition) at 10uM” value was -22.1%.
As for `CO/N=C(/CS(=O)(=O)c1ccc(Br)cc1)c1ccc(OC)cc1`, the “hERG current change (%, negative = inhibition) at 10uM” value is listed as -9.66%.
`Cc1ccc(C23CC4CC(CC(NC(=O)N5CCN(C)CC5)(C4)C2)C3)cc1`: the “hERG current change (%, negative = inhibition) at 10uM” value is given as -4.66%.
In the case of `COc1ccc2nc(NC(=O)CSCC(=O)Nc3cc(C)on3)sc2c1` it was 5.23%; in that of `O=Cc1ccc(OCc2cccc(C(F)(F)F)c2)cc1O`, 21.1%; in that of `O=C(O)c1ccc(CNC(=O)c2ccc3c(c2)C(=O)N(Cc2cccnc2)C3=O)cc1`, 4.01%.
In the case of `COC(=O)c1ccc(NC(=O)Cn2nc(C(=O)Nc3ccc(C)cc3)ccc2=O)cc1` it was 7.09%; in that of `O=C1c2ccccc2C(=O)N1CCC(O)C[N+](=O)[O-]` (stereo not drawn), 17.8%; in that of `COc1ccc(-n2cc(CNCCN3CCOC3=O)c(-c3ccccc3Cl)n2)cc1`, -18.5%.
The figure for `CCC(C)NC(=O)c1ccccc1SC` (stereo not drawn) is 23.3%.
With `COc1cccc(CNC(=O)CCCn2c(=S)[nH]c3cc4c(cc3c2=O)OCO4)c1`, the “hERG current change (%, negative = inhibition) at 10uM” value is listed as 13.4%.
`COc1cccc(NC(=O)CNC(=O)N2CC(=O)Nc3ccccc32)c1`: the “hERG current change (%, negative = inhibition) at 10uM” value is 7.86%.
`Cn1c(=O)c2c(nc(NCCc3ccccc3)n2CC(=O)NCCc2ccccc2)n(C)c1=O`: the “hERG current change (%, negative = inhibition) at 10uM” value is 6.57%.
For `CC(C)c1ccc2c(c1)C(N1CCNCC1)Cc1ccc(F)cc1S2.O.O=C(O)/C=C\C(=O)O` (stereo not drawn), the “hERG current change (%, negative = inhibition) at 10uM” value is 5.51%.
In the case of `O=C(CCOc1ccccc1)Nc1ccc([N+](=O)[O-])cc1` it was -34.7%.
The figure for `Cc1cccn2cc(-c3cccc(S(=O)(=O)N4CCCCC4)c3)nc12` is -14%; for `O=C(CCN1C(=O)c2ccccc2C1=O)NCc1ccccc1` it is 10.2%; for `O=C(NCC1CCCO1)NC1CCCCC1` (stereo not drawn) it is 18.3%.
The figure for `CC(=O)Nc1ccc(-c2nc3ccccc3o2)cc1` is -19.8%; for `COc1ccc(C(=O)N2CCCC(Nc3ccc(F)cc3)C2)c(OC)c1` (stereo not drawn) it is 11.1%.
On to `CCN1C(=O)c2cccc3c(NC(=O)c4ccc(OC)c(OC)c4)ccc1c23`, for which the “hERG current change (%, negative = inhibition) at 10uM” value is -68.3%.
In the case of `CC(=O)c1cccc(OCC(=O)N(Cc2ccco2)c2c(N)n(Cc3ccccc3)c(=O)[nH]c2=O)c1`, the “hERG current change (%, negative = inhibition) at 10uM” value is listed as -1.06%.
In the case of `Cc1cc(C)nc(SC2CCCCC2NS(=O)(=O)c2ccc(Cl)cc2)n1` (stereo not drawn), the “hERG current change (%, negative = inhibition) at 10uM” value is recorded as -14.7%.
Take `O=C(Oc1ccc2c(-c3ccccc3)cc(=O)oc2c1)C1CCCCC1`: the “hERG current change (%, negative = inhibition) at 10uM” value was 9.18%.
The figure for `CCCCCCC(=O)N/N=C/c1c(O)n(C(C)CC)c(=S)[nH]c1=O` (stereo not drawn) is 17.1%; for `COc1cc(OC)cc(C(=O)NNC(=O)C2CSC3(C)CCC(=O)N23)c1` (stereo not drawn) it is 18.3%.
The figure for `CC[C@H](C)[C@H](NC(=O)[C@H](Cc1ccc(O)cc1)NC(=O)[C@@H](N)C(C)C)C(=O)N[C@@H](Cc1cnc[nH]1)C(=O)N1CCC[C@H]1C(=O)N[C@@H](Cc1ccccc1)C(=O)O` is 4.75%.
In the case of `Cc1noc(C)c1N=Nc1ccccc1C(=O)O` it was 18.2%; in that of `CN1CCN(C(c2cccc(Cl)c2)c2ccccc2Cl)CC1.O=C(O)/C=C\C(=O)O` (stereo not drawn), -73.1%; in that of `Cc1ccc(C(C)(C)C)c(OCCOCCN2CCCC2)c1`, -30.2%.
For the compound `O=C(CSc1ccccc1C(=O)O)Nc1ccc2c(c1)OCO2`, the “hERG current change (%, negative = inhibition) at 10uM” value is given as 1.24%.
For the compound `COC(=O)c1sc2nc(C)cc(-c3ccccc3)c2c1N`, the “hERG current change (%, negative = inhibition) at 10uM” value came out at 1.71%.
Turning to `COc1ccc(C2=NOC(C3(S(=O)(=O)c4ccccc4)CC(O)C3)C2)cc1` (stereo not drawn), the “hERG current change (%, negative = inhibition) at 10uM” value is given as -6.18%.
For `CC(C)C1C(c2ccccc2)N(C)C(c2ccccc2)CC1(O)c1ccccc1` (stereo not drawn), the “hERG current change (%, negative = inhibition) at 10uM” value is recorded as -11.5%.
The figure for `CS(=O)(=O)c1cccc(-c2nnc(NC(=O)c3ccc(S(=O)(=O)N4CCCC4)cc3)o2)c1` is -15.7%; for `COc1ccc(N=Nc2c(C)[nH]c3ccccc23)cc1` it is -0.358%.
In the case of `COc1ccc(C(CCN2CCN(c3ccccc3)CC2)c2c(OC)cc(OC)c3c(-c4ccccc4)cc(=O)oc23)cc1` (stereo not drawn) it was -9.55%; in that of `COC(=O)c1c(NC(C)=O)csc1C`, 8.43%; in that of `CC(C)(O)C#Cc1ccc(C(=O)N2CCCC(CNS(=O)(=O)c3cccs3)C2)o1` (stereo not drawn), -1.94%.
For the compound `CN(Cc1ccccc1)C(=O)CCC1CCN(S(=O)(=O)N(C)C)CC1`, the “hERG current change (%, negative = inhibition) at 10uM” value is -18.4%.
The figure for `COc1ccccc1-n1nnnc1SCC(=O)N1CCCC1=O` is -11.1%.
The figure for `COCCCNC(=O)c1cc(C)nc2ccc(F)cc12` is -5.99%.
`O=c1c2c(nc3c(-c4cccc5ccccc45)c[nH]n13)CCC2`: the “hERG current change (%, negative = inhibition) at 10uM” value is 0.888%.
`CCc1cccc(C)c1NC(=O)c1ccc2nc(N3CCOCC3)sc2c1`: the “hERG current change (%, negative = inhibition) at 10uM” value is 3.13%.
The figure for `O=S(=O)(NCCc1cn2ccccc2n1)c1cccs1` is -10.5%; for `O=C(O)C(=O)O.Oc1ccccc1N1CCN(CC(O)COC2CCCc3ccccc32)CC1` (stereo not drawn) it is -43.2%; for `Cc1c(Cl)cccc1NC(=S)NC(=O)c1cncc(Br)c1` it is 17.6%.
The figure for `CCCOc1ccc(-c2nc(SCc3ccccc3)[nH]c(=O)c2C#N)cc1OC` is 8.95%; for `CCOC(=O)C1CCN(C(=O)COC(=O)CSc2ccc([N+](=O)[O-])cc2)CC1` it is -39.5%.
The figure for `OCCOCCNc1ncnc2sc(-c3ccccc3)cc12` is -49.1%.
As to `O=S(=O)(NCC1CN(S(=O)(=O)c2c(F)cccc2F)C1)c1ccc2c(c1)OCCO2`, the “hERG current change (%, negative = inhibition) at 10uM” value stood at 10.4%.
In the case of `CC1=NN(c2ccccc2)C(=O)/C1=C/c1ccc(-c2ccc(C)c(C(=O)O)c2)o1` it was 2.37%; in that of `CCOc1ccc(OCC)c(NC(=O)c2ccc(CNc3c(N4CCCC4)c(=O)c3=O)cc2)c1`, 5.28%; in that of `Cc1nnc(-c2cnn(C)c2N)n1Cc1ccc(Cl)cc1`, 4.95%.
In the case of `FC(F)(F)c1cnc(N/N=C/c2ccncc2)c(Cl)c1` it was -12.2%.
With `CN(C)/C=C(\C#N)C(=O)Nc1ccc(F)c(Cl)c1`, the “hERG current change (%, negative = inhibition) at 10uM” value was 11.5%.
In the case of `Cc1cc(NC(=O)c2noc3c2CCCCC3)nn1Cc1ccc(Cl)cc1` it was 8.76%; in that of `CCc1nn(C(C)C(=O)N2CCN(c3ccccc3)CC2)c(=O)c2cc3occc3n12` (stereo not drawn), -25.3%.
The figure for `CCCCOc1ccc(S(=O)(=O)Nc2cc(OC)ccc2OC)cc1` is -2.48%.
In the case of `O=C(OC1CCN(c2ncc(C(F)(F)F)cc2Cl)CC1)c1cccc(C(F)(F)F)c1` it was 14.7%; in that of `COc1ccc(Br)cc1CNC(=O)CCCc1cn(C)c2ccccc12`, 18.5%; in that of `Cc1cccc(N2C(=O)CC(N3CCN(c4ccccc4)CC3)C2=O)c1` (stereo not drawn), 5.46%.
Consider `Cc1ccc(N=Nc2cc(C)ccc2N)cc1`, for which the “hERG current change (%, negative = inhibition) at 10uM” value stood at 2.3%.
Take `CCC1C(=O)CC(c2ccc([N+](=O)[O-])cc2)NC1c1ccc([N+](=O)[O-])cc1` (stereo not drawn): the “hERG current change (%, negative = inhibition) at 10uM” value is -76.3%.
The figure for `CCN(CC(=O)NCc1ccc(F)cc1)C(=O)c1cc2ccccc2o1` is -55.9%.
For `CS/C(=N\S(=O)(=O)c1cccs1)Nc1cccc(Cl)c1C`, the “hERG current change (%, negative = inhibition) at 10uM” value was 10.8%.
On to `Cl.OC(COc1ccccc1)CN1CCC(Cc2ccccc2)CC1` (stereo not drawn), for which the “hERG current change (%, negative = inhibition) at 10uM” value is listed as -79.3%.
Turning to `CCCS(=O)(=O)Nc1ccc(-c2cn3c(n2)SCC3)cc1`, the “hERG current change (%, negative = inhibition) at 10uM” value is recorded as 14%.
In the case of `O=C(COC(=O)c1cncc(Br)c1)Nc1ccc(N2CCCCC2)cc1`, the “hERG current change (%, negative = inhibition) at 10uM” value was -7.4%.
In the case of `O=C(c1cccc(Br)c1)N1CCN(C2=NS(=O)(=O)c3ccccc32)CC1`, the “hERG current change (%, negative = inhibition) at 10uM” value is -65.8%.
The figure for `CCCCCCCNC(=O)C1(CC2CC(c3cccc(Br)c3)=NO2)CCN(C(=O)c2cc(OCC)c(OCC)c(OCC)c2)CC1` (stereo not drawn) is 4.79%; for `COc1ccc(/C=N/NC(=O)c2ccccc2NC(=O)c2ccco2)c(OC)c1` it is 15.3%.
The figure for `CC1C(=O)Nc2ccccc2N1C(=O)C1CC1` (stereo not drawn) is 3.53%; for `CCN(CC)CCN(C(=O)CCS(=O)(=O)c1ccccc1)c1nc2c(C)cc(C)cc2s1.Cl` it is 3.11%; for `O=C(COc1ccc(F)cc1Cl)Nc1ccccc1C(=O)N1CCCCC1` it is -11.8%.
The figure for `CCOC(=O)c1ccc2ncc(C(=O)OCC)c(NCCN(C)C)c2c1` is -69.5%; for `CCCCN1CC(=O)N2[C@H](c3ccc(Cl)cc3)[C@@H]3C(=O)N(CC)C(=O)[C@@H]3[C@]2(Cc2ccccc2)C1=O` it is -22.8%.
With `CC(C)[C@H](NC(=O)[C@H](CCCN=C(N)N)NC(=O)NC(Cc1ccccc1)C(=O)O)C(=O)NC(C=O)CCCN=C(N)N` (stereo partly drawn) ({ξF-CO}-Arg-Val-[ξR]-aldehyde), the “hERG current change (%, negative = inhibition) at 10uM” value turned out to be 13.5%.
`CCOC(=O)N1CCC(NC(=O)c2cc3c(C)nc4ccccc4c3o2)CC1`: the “hERG current change (%, negative = inhibition) at 10uM” value is -21.9%.
In the case of `CC1(C)CC(=O)C2=C(C1)NC(=S)C(C#N)C21CCCCC1` (stereo not drawn) it was 13.8%; in that of `Cc1ccc2c(C)c(C(=O)N3CCCCC3CO)oc2c1C` (stereo not drawn), 13.2%; in that of `COc1cc(/C=N\Nc2nc3ccccc3o2)cc(OC)c1OC`, 4.65%.
In the case of `NNC(=O)c1oc2nc(-c3ccco3)cc(-c3ccco3)c2c1N` it was -12.8%.
